# Results: PMC6919601, “Identification of Plasmodium dipeptidyl aminopeptidase allosteric inhibitors by high throughput screening” (PLoS ONE, 2019)
# Out of some 110,000 compounds screened, about 230 (0.21%) showed an effect of 50% or more. The list shows a part of the results.
# Molecular target: DPAP1 (Plasmodium falciparum, UniProt Q8IIJ9)
# Test: primary screen, percent inhibition; read by cleavage of a fluorogenic dipeptide substrate; higher = more effect of the substance
# Parameters: species or system P. falciparum D10 trophozoite lysates; single well
# 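Further: 30 min substrate incubation versus DMSO and 10 µM JCP410 controls.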
# DPAP1, sequence (Q8IIJ9 whole entry, looked up): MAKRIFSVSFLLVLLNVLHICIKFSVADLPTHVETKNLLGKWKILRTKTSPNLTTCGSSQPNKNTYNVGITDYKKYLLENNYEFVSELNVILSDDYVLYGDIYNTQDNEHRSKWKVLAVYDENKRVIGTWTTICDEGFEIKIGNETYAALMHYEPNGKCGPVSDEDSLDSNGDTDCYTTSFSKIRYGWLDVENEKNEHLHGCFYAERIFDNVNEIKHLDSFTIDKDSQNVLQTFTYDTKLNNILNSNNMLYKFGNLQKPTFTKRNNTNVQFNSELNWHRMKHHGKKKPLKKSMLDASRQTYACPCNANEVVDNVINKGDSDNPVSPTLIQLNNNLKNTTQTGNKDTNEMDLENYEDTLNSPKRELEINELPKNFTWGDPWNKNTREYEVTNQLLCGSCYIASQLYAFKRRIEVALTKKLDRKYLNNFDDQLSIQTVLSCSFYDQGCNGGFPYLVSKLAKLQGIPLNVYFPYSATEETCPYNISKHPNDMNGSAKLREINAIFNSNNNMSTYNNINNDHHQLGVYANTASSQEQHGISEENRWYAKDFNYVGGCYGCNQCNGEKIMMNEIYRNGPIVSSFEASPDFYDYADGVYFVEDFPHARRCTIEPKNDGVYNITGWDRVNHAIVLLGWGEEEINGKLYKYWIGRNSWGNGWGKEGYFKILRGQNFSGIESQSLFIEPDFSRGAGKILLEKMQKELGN
row,Compound,% Inhibition @ 10 uM
1,N#C/C(=C/c1ccccc1Cl)c1nc(-c2ccccc2)cs1,-1.97%
2,O=C1c2ccccc2-c2onc3ccc(Oc4ccccc4)c1c23,5.8%
3,CC1=C(CCC2(C)OC(=O)N(C3CC(C)(C)NC(C)(C)C3)C2(C)O)C(C)(C)CCC1 (stereo not shown),3.99%
4,CNC(=O)CCCc1cn(Cc2ccc(C)cc2)c2ccccc12,3.27%
5,COc1cc(C2C(C#N)=C(N)Oc3cc4c(cc32)OCO4)ccc1OCc1cccc(F)c1 (stereo not shown),-0.366%
6,CCCCN(CCCC)C(=O)C1CCCN1S(=O)(=O)c1cccc2nsnc12 (stereo not shown),1.26%
7,CCc1ccc(NC(=O)CN2C(=O)S/C(=C/c3ccc(O)cc3)C2=O)cc1,6.24%
8,Cc1ccc(C(=O)Nc2ccc(S(=O)(=O)Nc3cc(C)on3)cc2)cc1,-5.1%
9,COc1ccc(C2c3sc(O)nc3SC3C4CCC(C4)C23)cc1OC (stereo not shown),31.8%
10,CC(Cc1ccc(F)cc1)N1CCN(Cc2ccccc2)CC1 (stereo not shown),-5.31%
11,N#CCNC(=O)[C@H](CSCc1ccccc1)NC(=O)OCc1ccccc1,-1.83%
12,O=C(CCSCCC(=O)NCc1ccccc1)NCc1ccccc1,-3.65%
13,O=C1/C(=C/c2ccco2)C(=O)N(c2ccc(Br)cc2)C(=S)N1c1ccccc1,16.3%
14,Cc1nn(Cc2c(Cl)cccc2Cl)c(C)c1NC(=O)c1cc(-c2ccco2)on1,-0.591%
15,CCC(=O)Nc1nonc1-c1nc2ccccc2n1Cc1ccc(F)cc1Cl,1.52%
16,O=C1NC(c2ccccc2OCc2ccccc2)Nc2ccccc21 (stereo not shown),3.49%
17,O=C(O)CCC(=O)Nc1ccccc1C#Cc1ccccc1,-0.546%
18,CC(C)c1ccc(/C=C/C(=O)N2CCOCC2)cc1,-1.38%
19,COC(=O)c1ccccc1NC(=O)C(C)Oc1ccccc1 (stereo not shown),2.64%
20,CCc1nc(O)c2c(n1)-c1ccccc1CC21CCCCC1,5.61%
21,COc1ccccc1/C=C(\C#N)c1nc(-c2ccc(-c3ccccc3)cc2)cs1,-6.07%
22,CCC1CCC(N2CCC(C(N)=O)CC2)CC1 (stereo not shown),-3.5%
23,O=C(O)c1ccc(-n2cc(CNCc3ccccc3Cl)c3ccccc32)s1,-3.53%
24,Cc1cc(/C=C2\SC(N)=NC2=O)c(C)n1-c1ccc(Cl)cc1,-2.94%
25,CC1=C(C(=O)Nc2cccc(C)c2C)C(c2ccc(F)cc2)NC(=O)N1 (stereo not shown),-4.39%
26,CCCCNC(=O)Cn1c2ccccc2c2cnnc(O)c21,-0.281%
27,O=C(CSC1=NCCS1)Nc1nc2ccccc2s1,2.26%
28,CCc1nc2sc(C#N)c(N)c2c2c1CCCC2,-1.37%
